45 sequences from the supplement of paper PMC11417369 can be followed below.

± gives the standard deviation of the averaged measurements. This is one part of the list.

The test has as its system PfAP2-I AP2 domain 3 (GST-tagged). The test can be described thus: gcPBM binding intensity (ln(normalized median fluorescence intensity)); higher = stronger DNA binding. The gist of the method:
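After 1 h on an Agilent 4 × 180k array of primer-extended double-stranded 36-bp intergenic genomic probes and negative controls, bound GST-tagged P. falciparum DNA-binding domains were detected with Alexa488 anti-GST antibody and scanned at 488 nm. The domains had been expressed in E. coli, and binding took place in 1× PBS with 1% milk, 0.2 mg/ml BSA, 0.5% salmon testes DNA and 0.03% Triton X-100. Binding intensity is the highest Masliner-normalised natural-log median intensity across replicate spots of either probe orientation.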
Regarding “TATTATTACGTAATATGTACATATATTTATACCACT [XGTACX_site5918]”, the “gcPBM binding intensity (ln)” value came out at 8.09 ± 0.38.
Next, “AGGAAAAACTTGAATGCATGCGCACATTCTAGTTTG [TGCATGCA_site776]”: 7.75 ± 0.92; “ATAAATACTAGGCACACACACATATATATATATATA [CACACA_site2080]”: 9.33 ± 0.21; “ATATATATATATATATGTACATATATGTATACCTTA [XGTACX_site6791]”: 9.38 ± 0.67.
Next, “CAATAGTTCTTATGGGTGCAAACCACATATATATAA [GTGCAC_site9606]”: 10.2 ± 0.27; “TTTATTTATCTGTATACACACTTTAATGAAAAGTTG [CACACA_site5400]”: 7.87 ± 0.49.
With “ACAAATCTAAGATAGTGTACATTTATATATATATAT [XGTACX_site8740]” the figure was 9.4 ± 0.24.
For “TTTATATACACACAGAAGAACAGAAATATTATATAT [TGCATGCA_negctrl_site483]”, the “gcPBM binding intensity (ln)” value was found to be 7.79 ± 0.69.
Next, “AATATAAATAAAAACACACACACACCCATATATATA [CACACA_site2267]”: 8.32 ± 0.66; TATATATATATATAAGTGCATATAAAAATCGTTCGT: 10.3 ± 0.11; “ATATATATATAATAAACACACACATATACATATATG [CACACA_site9145]”: 9.04 ± 0.092.
With “ATTTTTTTTTTTTTTTTTTTTTTTTGGAGAAAGAGA [CACACA_negctrl_site1119]” the figure was 7.7 ± 0.46.
Next, “TATTTTTTTTTTATATGTACATAATTTCAAATAAAT [XGTACX_site7747]”: 7.97 ± 0.41; “AAGGATATAACATACACACACACACCGATATATATA [CACACA_site6136]”: 8.21 ± 0.67; “AAAATTATATATTATTGTACATAAAATTTTGACATA [XGTACX_site4886]”: 7.65 ± 0.51.
As to “ATAACGATATATGTGCGTACTTATAGAATAAGCAAA [XGTACX_site6743]”, the “gcPBM binding intensity (ln)” value came to 7.89 ± 0.47.
Next, ATATATCATATTATAGTGCATTTATAATAATATTAT: 10.8 ± 0.13.
With “TATTATCTGTAGTGTACACATATTATATAGTACTTT [CACACA_site4582]” the figure was 8.27 ± 0.6; with “TTTTTTTTGTTGTTGTTGCACTTGATAGGAATGGCT [GTGCAC_site9701]”, 9.57 ± 0.057; with “CCATTTACAAAAAGGAGTACACAAATATATGTTTAA [XGTACX_site649]”, 8.1 ± 0.22.
Next, “AAAAAAAACAGACACACACACAAATACATACACAAA [CACACA_site705]”: 7.92 ± 0.4.
With “TACTTACAGATAATAACACACAAGAAAAAAATAAAA [CACACA_site4716]”, the “gcPBM binding intensity (ln)” value was 7.92 ± 0.83.
Regarding “AATATTTATGGGTGCACACAAACATACAGATATATA [CACACA_site5810]”, the “gcPBM binding intensity (ln)” value is 10.7 ± 0.29.
For “TATATATATATCAAGTGTACTTGTGTTTGTAATATT [XGTACX_site8854]”, the “gcPBM binding intensity (ln)” value was determined as 9.165 ± 0.049.
For “TACAAATATGGACACACACACATATTTATATTTATA [CACACA_site6420]”, the “gcPBM binding intensity (ln)” value amounted to 7.8 ± 0.41.
With “AAAAAACAGACATACACACACACACGGATATTTATA [CACACA_site7570]” the figure was 7.82 ± 0.73; with “ATATAAATGTATATGACACACATATATATATATATA [CACACA_site889]”, 9.31 ± 0.35.
Next, “TTTGAATATATAAATATGCACACTTCTATTATAAAT [CACACA_site3359]”: 8.87 ± 0.35; “TTCTTATATAAATACACACACAAAATATCTACAATG [CACACA_site4568]”: 7.97 ± 0.33; “TATTATTTTTCCTAATGTACAAAATATATATTTTTA [XGTACX_site2727]”: 7.8 ± 0.51.
Next, “ATGTTGCACAATGTTACACACACAATATATATCGTT [CACACA_site4833]”: 9.91 ± 0.22; “TATATTAGAAGAAATTCACACATTCATGTAATCTTA [CACACA_site4706]”: 7.11 ± 0.51; “AATCGATTGGATAATATTTTTTCTCTTAATTTTTTG [GTGCAC_negctrl_site165]”: 7.43 ± 0.33.
Consider “AAAAAAATAAAAAGGAACGTCTATAGTTAATTTATT [CACACA_negctrl_site919]”, for which the “gcPBM binding intensity (ln)” value stood at 7.61 ± 0.95.
With “AAAATTTTTAAATATTGTACTATTTATTTTTAGCAT [XGTACX_site6190]” the figure was 7.71 ± 0.54; with “TATATATATATATTTACACACATTCATATAAATTCA [CACACA_site3532]”, 9.31 ± 0.22.
For “GCCTACAGACTTAGTAGTACATGAGAAGATATATAT [XGTACX_site2269]”, the “gcPBM binding intensity (ln)” value worked out at 8 ± 0.59.
Next, “AATATGAACGGACACACACACACAAAAAAAAAAAAA [CACACA_site5154]”: 8.06 ± 0.5; “TATATTTATTTATATACACACACTTGTATAAAAAAT [CACACA_site2036]”: 7.87 ± 0.41; “TATCTATATGGGAACACACTCATAAATATATATCTA [CACACA_site4815]”: 7.59 ± 0.47.
Next, “TATATCAAAATACATACACACATTTGTATATACATT [CACACA_site2696]”: 7.78 ± 0.48; “TATATACAGAAACACACACACACATATATATATATA [CACACA_site2247]”: 9.31 ± 0.34; “AAAATAAATAAATACACACACACGAATATATATATA [CACACA_site1683]”: 8.99 ± 0.17.
Next, “TTTTAAAAATAATAAATAAATAAAATTGAAGTTCCA [CACACA_negctrl_site305]”: 7.21 ± 0.71; “GGTCTTATTTTTAGTAGTACAAATATAATATACATA [XGTACX_site6483]”: 8.1 ± 0.25.
